Measurements reported in PubChem BioAssay (Tox21).
Where “and” joins values, the source holds several entries; their conditions need not be identical. Equal values may be shown once. The inconclusive results got no clear call from the source; some entries with a clear call stand among them for comparison. Potencies of inconclusive entries are doubtful fits and often do not repeat. Calls of active or inactive are those of the source. Calls come from the whole dose curve; as a rule, active = well fitted activation curve with a large enough effect in the signal ratio in the repeat runs (not every such curve was filed as active); inconclusive = weak or mixed curves; inactive = flat fitted curve, though single readings scatter; the % refers to the signal ratio.

Test: qHTS assay to identify small molecule agonists of H2AX (AID 1224845)
Conditions: CHO-K1 phospho-H2AX Ser139 HTRF, 3 h; series mostly up to 154 µM
Outline: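 Phospho-H2AX Ser139 measured by HTRF (ex 320 nm; em 665 and 620 nm) after 24 hr antibody incubation. Compounds, 15 concentrations, 0.76% DMSO, were applied to CHO-K1 cells for 3hr at 37C before lysis.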
Potency is the fitted concentration of half-maximal effect; tags give direction and shape of the fitted curve or compound fluorescence and quenching.

Row | Compound | Potency
1 | CN(C)c1cccc(O)c1 | inconclusive: 91.1 µM [falling, partial curve]
2 | O=C(Cl)c1c(Cl)c(Cl)c(C(=O)Cl)c(Cl)c1Cl | inconclusive: 101 µM [rising, partial curve, poor fit]
3 | O=C1c2c(O)ccc([N+](=O)[O-])c2C(=O)c2c([N+](=O)[O-])ccc(O)c21 | inconclusive: 25.1 µM [cytotoxic]
4 | c1ccc(Sc2ccccc2)cc1 | inconclusive: 113 µM [activator]
5 | Nc1cc([N+](=O)[O-])ccc1O | inconclusive: 56.6 µM [falling, partial curve] and inconclusive: 89.3 µM [falling, partial curve]
6 | CC(=O)c1cc2ccccc2s1 | inconclusive: 31 µM [rising, partial curve]
7 | CCCCCCCCCCCCCCCCC(C(=O)O)C(O)(CC(=O)O)C(=O)O (stereo not drawn) | inactive
8 | CCc1cc(Cc2cc(CC)c(N)c(CC)c2)cc(CC)c1N | inconclusive: 113 µM [activator, partial curve, poor fit]
